Results published in the supplement of paper PMC12217912.
Some of the results follow. Sequences were assembled here from the parent chain. Inactive controls read about 0.05.

B1: TEV protease; numbered along this chain (parent)
chain: MGESLFKGPRDYNPISSSICHLTNESDGHTTSLYGIGFGPFIITNKHLFRRNNGTLVVQSLHGVFKVKDTTTLQQHLVDGRDMIIIRMPKDFPPFPQKLKFREPQREERICLVTTNFQTKSMSSMVSDTSCTFPSGDGIFWKHWIQTKDGQCGSPLVSTRDGFIVGIHSASNFTNTNNYFTSVPKNFMELLTNQEAQQWVSGWRLNADSVLWGGHKVFMVKPEEPFQPVKEATQL

Variants of: B1
Assay: raw area under fraction-flipped curve 0-4 h after induction (AUC4h, not background-subtracted), DNA-recorder readout of cleavage of the substrate (dimensionless); higher = more cleavage of the substrate by the protease variant
Details: temperature: 34 °C; time window: 0-4 h after rhamnose induction
Method: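 In vivo DNA recorder in E. coli TOP10(DE3) ΔrhaA at 34 °C. Each TEVp single-site mutant (parent TEVp 0) is paired with a single-site variant of the 7-mer TEVs (canonical ENLYFQ|S). The substrate sits between flexible linkers in a Bxb1-sfGFP-TEVs-SsrA fusion, so cleavage stabilises Bxb1 and speeds flipping of a recombination array, read by NGS. The value is the raw area under the fraction-flipped curve over 0-4 h after rhamnose induction (AUC4h), with ≥20 reads per time point. It is not background-subtracted; inactive controls average about 0.047.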
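Further: Bxb1 expression induced with 0.2% (w/v) L-rhamnose at OD600 near 0.5, cultures sampled hourly, flipped fraction per protease–substrate barcode pair counted by paired-end Illumina sequencing.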

Variant: MGESLFKGPRDYNPISSSICHLTNESDGHTTSLYGIGFGPFIITNKHLFRRNNGTLVVQSLHGVFKVKDTTTLQQHLVDGRDMIIIRMPKDFPPFPQKLKFREPQREEIICLVTTNFQTKSMSSMVSDTSCTFPSGDGIFWKHWIQTKDGQCGSPLVSTRDGFIVGIHSASNFTNTNNYFTSVPKNFMELLTNQEAQQWVSGWRLNADSVLWGGHKVFMVKPEEPFQPVKEATQL [R109I]
- area with substrate ENLYFAS: 0.0896
- area with substrate ENLYFCS: 0.0565
- area with substrate ENLYFES: 0.0624
- area with substrate ENLYFFS: 0.0657
- area with substrate ENLYFHS: 0.0572
- area with substrate ENLYFIS: 0.0517
- area with substrate ENLYFLS: 0.0286
- area with substrate ENLYFMS: 0.054
- area with substrate ENLYFNS: 0.0698
- area with substrate ENLYFPS: 0.058
- area with substrate ENLYFRS: 0.0604
- area with substrate ENLYFSS: 0.0668
- area with substrate ENLYFTS: 0.0637
- area with substrate ENLYFVS: 0.0572
- area with substrate ENLYFWS: 0.0478
- area with substrate ENLYFYS: 0.0575

Variant: MGESLFKGPRDYNPISSSICHLTNESDGHTTSLYGIGFGPFIITNKHLFRRNNGTLVVQSLHGVFKVKDTTTLQQHLVDGRDMIIIRMPKDFPPFPQKLKFREPQREEQICLVTTNFQTKSMSSMVSDTSCTFPSGDGIFWKHWIQTKDGQCGSPLVSTRDGFIVGIHSASNFTNTNNYFTSVPKNFMELLTNQEAQQWVSGWRLNADSVLWGGHKVFMVKPEEPFQPVKEATQL [R109Q]
- area with substrate ENLYFAS: 0.108
- area with substrate ENLYFCS: 0.0631
- area with substrate ENLYFFS: 0.0741
- area with substrate ENLYFHS: 0.058
- area with substrate ENLYFIS: 0.0701
- area with substrate ENLYFKS: 0.0676
- area with substrate ENLYFLS: 0.0674
- area with substrate ENLYFMS: 0.0746
- area with substrate ENLYFNS: 0.072
- area with substrate ENLYFPS: 0.0625
- area with substrate ENLYFRS: 0.0446
- area with substrate ENLYFTS: 0.0526

Variant: MGESLFKGPRDYNPISSSICHLTNESDGHTTSLYGIGFGPFIITNKHLFRRNNGTLVVQSLHGVFKVKDTTTLQQHLVDGRDMIIIRMPKDFPPFPQKLKFREPQREEWICLVTTNFQTKSMSSMVSDTSCTFPSGDGIFWKHWIQTKDGQCGSPLVSTRDGFIVGIHSASNFTNTNNYFTSVPKNFMELLTNQEAQQWVSGWRLNADSVLWGGHKVFMVKPEEPFQPVKEATQL [R109W]
- area with substrate ENLYFAS: 0.0595
- area with substrate ENLYFCS: 0.0588
- area with substrate ENLYFDS: 0.0568
- area with substrate ENLYFES: 0.0765
- area with substrate ENLYFFS: 0.0732
- area with substrate ENLYFGS: 0.0677
- area with substrate ENLYFHS: 0.0522
- area with substrate ENLYFIS: 0.0599
- area with substrate ENLYFKS: 0.0415
- area with substrate ENLYFMS: 0.0748
- area with substrate ENLYFNS: 0.077
- area with substrate ENLYFPS: 0.0569
- area with substrate ENLYFRS: 0.0742
- area with substrate ENLYFSS: 0.0719
- area with substrate ENLYFTS: 0.0629
- area with substrate ENLYFVS: 0.0642
- area with substrate ENLYFWS: 0.0513
- area with substrate ENLYFYS: 0.0348

Variant: MGESLFKGPRDYNPISSSICHLTNESDGHTTSLYGIGFGPFIITNKHLFRRNNGTLVVQSLHGVFKVKDTTTLQQHLVDGRDMIIIRMPKDFPPFPQKLKFREPQREERICLVTTNFQTKSMDSMVSDTSCTFPSGDGIFWKHWIQTKDGQCGSPLVSTRDGFIVGIHSASNFTNTNNYFTSVPKNFMELLTNQEAQQWVSGWRLNADSVLWGGHKVFMVKPEEPFQPVKEATQL [S123D]
- area with substrate ENLYFAS: 0.0436
- area with substrate ENLYFDS: 0.0556
- area with substrate ENLYFES: 0.0602
- area with substrate ENLYFFS: 0.0635
- area with substrate ENLYFGS: 0.0615
- area with substrate ENLYFIS: 0.056
- area with substrate ENLYFKS: 0.0619
- area with substrate ENLYFLS: 0.0725
- area with substrate ENLYFMS: 0.0595
- area with substrate ENLYFNS: 0.064
- area with substrate ENLYFPS: 0.0679
- area with substrate ENLYFRS: 0.0707
- area with substrate ENLYFSS: 0.0548
- area with substrate ENLYFTS: 0.0561
- area with substrate ENLYFVS: 0.0523
- area with substrate ENLYFWS: 0.0596
- area with substrate ENLYFYS: 0.0561

Variant: MGESLFKGPRDYNPISSSICHLTNESDGHTTSLYGIGFGPFIITNKHLFRRNNGTLVVQSLHGVFKVKDTTTLQQHLVDGRDMIIIRMPKDFPPFPQKLKFREPQREERICLVTTNFQTKSMISMVSDTSCTFPSGDGIFWKHWIQTKDGQCGSPLVSTRDGFIVGIHSASNFTNTNNYFTSVPKNFMELLTNQEAQQWVSGWRLNADSVLWGGHKVFMVKPEEPFQPVKEATQL [S123I]
- area with substrate ENLYFAS: 0.0588
- area with substrate ENLYFCS: 0.0613
- area with substrate ENLYFDS: 0.0353
- area with substrate ENLYFES: 0.0483
- area with substrate ENLYFFS: 0.061
- area with substrate ENLYFHS: 0.0615
- area with substrate ENLYFIS: 0.0573
- area with substrate ENLYFKS: 0.0596
- area with substrate ENLYFLS: 0.0653
- area with substrate ENLYFMS: 0.0696
- area with substrate ENLYFNS: 0.0655
- area with substrate ENLYFPS: 0.0873
- area with substrate ENLYFRS: 0.0611
- area with substrate ENLYFSS: 0.0601
- area with substrate ENLYFTS: 0.0836
- area with substrate ENLYFVS: 0.0599
- area with substrate ENLYFWS: 0.0629
- area with substrate ENLYFYS: 0.0483

Variant: MGESLFKGPRDYNPISSSICHLTNESDGHTTSLYGIGFGPFIITNKHLFRRNNGTLVVQSLHGVFKVKDTTTLQQHLVDGRDMIIIRMPKDFPPFPQKLKFREPQREERICLVTTNFQTKSMSRMVSDTSCTFPSGDGIFWKHWIQTKDGQCGSPLVSTRDGFIVGIHSASNFTNTNNYFTSVPKNFMELLTNQEAQQWVSGWRLNADSVLWGGHKVFMVKPEEPFQPVKEATQL [S124R]
- area with substrate ENLYFAS: 0.0577
- area with substrate ENLYFCS: 0.0698
- area with substrate ENLYFES: 0.0614
- area with substrate ENLYFFS: 0.0696
- area with substrate ENLYFHS: 0.0581
- area with substrate ENLYFIS: 0.0621
- area with substrate ENLYFKS: 0.0892
- area with substrate ENLYFLS: 0.0759
- area with substrate ENLYFMS: 0.0697
- area with substrate ENLYFNS: 0.052
- area with substrate ENLYFPS: 0.0603
- area with substrate ENLYFRS: 0.0389
- area with substrate ENLYFTS: 0.0663
- area with substrate ENLYFVS: 0.0651
- area with substrate ENLYFYS: 0.0599

Variant: MGESLFKGPRDYNPISSSICHLTNESDGHTTSLYGIGFGPFIITNKHLFRRNNGTLVVQSLHGVFKVKDTTTLQQHLVDGRDMIIIRMPKDFPPFPQKLKFREPQREERICLVTTNFQTKSMSVMVSDTSCTFPSGDGIFWKHWIQTKDGQCGSPLVSTRDGFIVGIHSASNFTNTNNYFTSVPKNFMELLTNQEAQQWVSGWRLNADSVLWGGHKVFMVKPEEPFQPVKEATQL [S124V]
- area with substrate ENLYFAS: 0.0389
- area with substrate ENLYFCS: 0.0596
- area with substrate ENLYFDS: 0.0602
- area with substrate ENLYFES: 0.0683
- area with substrate ENLYFFS: 0.0671
- area with substrate ENLYFGS: 0.049
- area with substrate ENLYFIS: 0.052
- area with substrate ENLYFKS: 0.068
- area with substrate ENLYFMS: 0.0555
- area with substrate ENLYFPS: 0.0576
- area with substrate ENLYFRS: 0.0483
- area with substrate ENLYFTS: 0.0589
- area with substrate ENLYFVS: 0.0575
- area with substrate ENLYFWS: 0.0566

Variant: MGESLFKGPRDYNPISSSICHLTNESDGHTTSLYGIGFGPFIITNKHLFRRNNGTLVVQSLHGVFKVKDTTTLQQHLVDGRDMIIIRMPKDFPPFPQKLKFREPRREERICLVTTNFQTKSMSSMVSDTSCTFPSGDGIFWKHWIQTKDGQCGSPLVSTRDGFIVGIHSASNFTNTNNYFTSVPKNFMELLTNQEAQQWVSGWRLNADSVLWGGHKVFMVKPEEPFQPVKEATQL [Q105R]
- area with substrate ENLYFAS: 0.0576
- area with substrate ENLYFCS: 0.0609
- area with substrate ENLYFDS: 0.069
- area with substrate ENLYFES: 0.0622
- area with substrate ENLYFFS: 0.0607
- area with substrate ENLYFHS: 0
- area with substrate ENLYFIS: 0.063
- area with substrate ENLYFKS: 0.0621
- area with substrate ENLYFLS: 0.085
- area with substrate ENLYFMS: 0.0635
- area with substrate ENLYFNS: 0.0583
- area with substrate ENLYFPS: 0.0568
- area with substrate ENLYFRS: 0.0649
- area with substrate ENLYFSS: 0.0646
- area with substrate ENLYFTS: 0.0598
- area with substrate ENLYFVS: 0.0988
- area with substrate ENLYFWS: 0.0671
- area with substrate ENLYFYS: 0.0508
